Test in all cases: Primary Screen for Target Class Profiling of Small Molecule Inhibitors of Methyltransferases
Test [1] addresses Glycine N-methyltransferase (Homo sapiens) (UniProt Q14749). As to conditions: purified enzyme, MTase-Glo SAH luminescence; measured here: GNMT inhibition; at 40 µM; stronger effect = lower value. A digest of the protocol: (§1)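 Each enzyme was assayed with SAM and its substrate. SAH formation detected by MTase-Glo luminescence; single-point 40 uM screen[…].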
In test [2] the target is Guanidinoacetate N-methyltransferase (Homo sapiens) (UniProt Q14353). The following applies: purified enzyme, MTase-Glo SAH luminescence; measured here: GAMT inhibition; at 40 µM; stronger effect = lower value. Summed up: as §1
The target in test [3] is Histamine N-methyltransferase (Homo sapiens) (UniProt P50135). The following applies: purified enzyme, MTase-Glo SAH luminescence; measured here: HNMT inhibition; at 40 µM; stronger effect = lower value. A digest of the protocol:
as §1

Test [4] addresses Nicotinamide N-methyltransferase (Homo sapiens) (UniProt P40261). As to conditions: purified enzyme, MTase-Glo SAH luminescence; measured here: NNMT inhibition; at 40 µM; stronger effect = lower value. A digest of the protocol:
as §1

For test [5], the target named is Phenylethanolamine N-methyltransferase (Homo sapiens) (UniProt P11086). As to conditions: purified enzyme, MTase-Glo SAH luminescence; measured here: PNMT inhibition; at 40 µM; stronger effect = lower value. Summed up:
as §1

The other results are listed elsewhere or left out. These are further read-outs of the screen, such as a control signal, another cell line or another target. No call is given for them.
On the % scale 0 is the no-effect control and ±100 the full control effect.

Consider `Cc1ccc(CNC(=O)CSc2nnc3n(C)c(=O)c4ccc(C(=O)NC5CCCCC5)cc4n23)cc1`, for which the activity change, negative = inhibition is -1.62% in test [1]; 0% in test [2]; -0.983% in test [3]; 1.24% in test [4]; 5.28% in test [5].

Take `COc1ccc(C(=O)COC(=O)C(Cc2c[nH]c3ccccc23)NC(=O)c2ccc(Cl)cc2)cc1` (stereo not given): the activity change, negative = inhibition in test [1] came out at 14.1%; in test [2], 3.86%; in test [3], 5.44%; in test [4] it was 6.51%; in test [5], 10.3%.

Turning to `Cc1cccc(N(C)C(=S)Oc2ccc3c(c2)CCC3)c1`, the activity change, negative = inhibition in test [1] is 7.61%; in test [2], 1.03%; in test [3], 7.4%; in test [4], -17%; in test [5] it was -1.36%.

Consider `O=C(NCc1ccccc1)c1csc(Nc2ccncn2)n1`, for which the activity change, negative = inhibition in test [1] was -15.7%; in test [2], -3.26%; in test [3], -8.95%; in test [4], -18.5%; in test [5] it was -7.48%.

As for `CC(C)C(C#N)O[C@@H]1O[C@H](CO[C@@H]2OC[C@](O)(CO)[C@H]2O)[C@@H](O)[C@H](O)[C@H]1O` (stereo not given in full), the activity change, negative = inhibition in test [1] was 1.51%; in test [2] it was 4.4%; in test [3], 9.2%; in test [4], -9.04%; in test [5] it was 2.36%.

Turning to `CCCn1c(=O)c2ccc(C(=O)NC(C)CC)cc2n2c(=O)n(Cc3cccc(C)c3)nc12` (stereo not given), the activity change, negative = inhibition in test [1] is -1.55%; in test [2], 2.22%; in test [3], 1.16%; in test [4], -8.88%; in test [5], -1.84%.

Take `CCOc1ccc(N(C(=O)C2CCCCC2)S(=O)(=O)c2ccc3c(c2)n(C)c(=O)n3C)cc1`: the activity change, negative = inhibition in test [1] was -6.56%; in test [2], 5.3%; in test [3] it was -4.17%; in test [4] it was -17.1%; in test [5] it was -2.56%.

As for `CCc1cccc(NC(=O)Cn2nc3n(C(C)C)c(=O)c4ccc(C(=O)NCC(C)C)cc4n3c2=O)c1`, the activity change, negative = inhibition in test [1] stood at 8.35%; in test [2], 1.75%; in test [3], 11.2%; in test [4], 3.46%; in test [5] it was 7.52%.

In the case of `CNC[C@H](O)c1ccc(O)c(O)c1`, the activity change, negative = inhibition in test [1] is -35.3%; in test [2], 2.77%; in test [3], 0.404%; in test [4] it was -9.95%; in test [5] it was -12.3%.

Consider `COc1ccc(CN2C(=O)c3ccc(-c4ccco4)n3CC2(C)C(=O)NC2CCCC(C)C2C)cc1` (stereo not given), for which the activity change, negative = inhibition in test [1] was 1.69%; in test [2] it was 0%; in test [3], 4.46%; in test [4] it was -2.77%; in test [5], -1.94%.

For the molecule `CCn1cc(CN2CC(Oc3ccc(-c4noc(-c5cccnc5)n4)cc3)C2)cn1`, the activity change, negative = inhibition in test [1] was -15.8%; in test [2], -11.8%; in test [3] it was -42.5%; in test [4] it was -20.4%; in test [5], -8.25%.

For `c1ccc(CCCc2noc(-c3ccc(N4CCOCC4)nc3)n2)cc1`, the activity change, negative = inhibition in test [1] was -6.82%; in test [2], -2.12%; in test [3], -3.23%; in test [4] it was -6.31%; in test [5], -1.66%.

Consider `Cn1c(=O)c2ccc(C(=O)NC3CCCCC3)cc2n2c(=O)n(Cc3ccccc3F)nc12`, for which the activity change, negative = inhibition in test [1] was -0.915%; in test [2], 4.59%; in test [3], 2.66%; in test [4] it was -3.12%; in test [5], -0.23%.

Take `CNCc1ccc(-c2cc(-c3nc(-c4ccc(S(=O)(=O)C(C)C)cc4)cnc3N)on2)cc1`: the activity change, negative = inhibition is -4.54% in test [1]; 0.063% in test [2]; -5.13% in test [3]; -17.2% in test [4]; -32.6% in test [5].

In the case of `CCCCCCCCCCCCCCCCCCN(CCCCCCCCCCCCCCCCCC)CCCN(CCO)CCO`, the activity change, negative = inhibition is 4.17% in test [1]; 7.88% in test [2]; 1.29% in test [3]; -3.26% in test [4]; 7.72% in test [5].

On to `CC(C)(N)C(=O)N1CCN(c2nc(-c3ccccc3)nc3c2CCC3)CC1`, for which the activity change, negative = inhibition in test [1] was -5.66%; in test [2], -3.35%; in test [3], -8.12%; in test [4], -8.51%; in test [5], -8.84%.

As to `CN1CCN(CCCN2c3ccccc3Sc3ccc(C(F)(F)F)cc32)CC1`, the activity change, negative = inhibition was -4.22% in test [1]; 9.63% in test [2]; -12.7% in test [3]; -63.9% in test [4]; 0.076% in test [5].

With `Nc1ccn([C@@H]2C(F)=C(CO)[C@@H](O)[C@H]2O)c(=O)n1`, the activity change, negative = inhibition in test [1] is 1.94%; in test [2], 6.27%; in test [3], 9.6%; in test [4] it was -8.71%; in test [5] it was 8.16%.

Regarding `CCC1(C2CCN(C(=O)CCCc3ccccc3)CC2)NC(=O)N(CCc2scnc2C)C1=O` (stereo not given), the activity change, negative = inhibition in test [1] is -1.24%; in test [2], 3.04%; in test [3], 0.303%; in test [4] it was 1.14%; in test [5], 1.97%.

In the case of `CCCCNc1nc2c(S(=O)(=O)c3ccc(C)c(C)c3)nnn2c2ccccc12`, the activity change, negative = inhibition in test [1] was -4.81%; in test [2], 0.633%; in test [3], 4.06%; in test [4], -3.83%; in test [5], -5.91%.

As for `CC1(C(=O)NCc2ccc(F)cc2)Cn2cnc(C(=O)NC3CCCCC3)c2C(=O)N1C1CC1` (stereo not given), the activity change, negative = inhibition in test [1] is 1.26%; in test [2], 0.519%; in test [3], 5.42%; in test [4], -0.34%; in test [5], 4.58%.

With `O=C(CCC(=O)n1ncc2ccc(Cl)cc21)N1CCN(c2ccccc2)CC1`, the activity change, negative = inhibition in test [1] was -6.91%; in test [2], 4.3%; in test [3], 3.35%; in test [4], -0.591%; in test [5], -2.17%.

Regarding `COC(=O)Nc1nc2ccc(C(=O)c3cccs3)cc2[nH]1`, the activity change, negative = inhibition is 3.31% in test [1]; -6.81% in test [2]; 7.48% in test [3]; -24.4% in test [4]; -24.7% in test [5].

`COc1ccc(-c2cc3n(n2)CC(C)(C(=O)NC2CCCCC2)N(Cc2ccc(C)cc2)C3=O)cc1` (stereo not given): the activity change, negative = inhibition is 0.175% in test [1]; -0.446% in test [2]; 2.61% in test [3]; -7.5% in test [4]; -3.87% in test [5].

For the molecule `Cc1nc(-c2cccnc2)ncc1C(=O)N1CCC2(CC1)CC(=O)N(C)C2`, the activity change, negative = inhibition in test [1] was -3.35%; in test [2], -7.36%; in test [3], -0.79%; in test [4], -10.2%; in test [5] it was -5.14%.

On to `CCOC(=O)c1cc2n(n1)CC(C)(C(=O)NC1CCC(C)CC1)N(CCc1cccs1)C2=O` (stereo not given), for which the activity change, negative = inhibition in test [1] was 1.85%; in test [2] it was 0%; in test [3] it was 3.26%; in test [4], -4.6%; in test [5] it was 0.979%.

For `O=C(N[C@@H]1COCC[C@@H]1OCC1CC1)c1cc(-n2cccn2)ccc1Cl`, the activity change, negative = inhibition in test [1] was -4.37%; in test [2] it was -6.23%; in test [3], -0.712%; in test [4], -6.52%; in test [5], -2.58%.

With `CC(C)c1cc2n(n1)CC(C)(C(=O)NC1CCCCC1)N(c1cccc(Cl)c1)C2=O` (stereo not given), the activity change, negative = inhibition in test [1] is -0.152%; in test [2] it was 0%; in test [3] it was 3.49%; in test [4], 3.26%; in test [5], -0.082%.

The values above are taken from PubChem BioAssay AID1745853 (National Center for Advancing Translational Sciences (NCATS), 2022).
